In assay [1] the target is T1, 3xFLAG-tagged ATF7IP WT (transiently expressed in HEK293T cells) (mouse) (UniProt Q7TT18).
T1 sequence: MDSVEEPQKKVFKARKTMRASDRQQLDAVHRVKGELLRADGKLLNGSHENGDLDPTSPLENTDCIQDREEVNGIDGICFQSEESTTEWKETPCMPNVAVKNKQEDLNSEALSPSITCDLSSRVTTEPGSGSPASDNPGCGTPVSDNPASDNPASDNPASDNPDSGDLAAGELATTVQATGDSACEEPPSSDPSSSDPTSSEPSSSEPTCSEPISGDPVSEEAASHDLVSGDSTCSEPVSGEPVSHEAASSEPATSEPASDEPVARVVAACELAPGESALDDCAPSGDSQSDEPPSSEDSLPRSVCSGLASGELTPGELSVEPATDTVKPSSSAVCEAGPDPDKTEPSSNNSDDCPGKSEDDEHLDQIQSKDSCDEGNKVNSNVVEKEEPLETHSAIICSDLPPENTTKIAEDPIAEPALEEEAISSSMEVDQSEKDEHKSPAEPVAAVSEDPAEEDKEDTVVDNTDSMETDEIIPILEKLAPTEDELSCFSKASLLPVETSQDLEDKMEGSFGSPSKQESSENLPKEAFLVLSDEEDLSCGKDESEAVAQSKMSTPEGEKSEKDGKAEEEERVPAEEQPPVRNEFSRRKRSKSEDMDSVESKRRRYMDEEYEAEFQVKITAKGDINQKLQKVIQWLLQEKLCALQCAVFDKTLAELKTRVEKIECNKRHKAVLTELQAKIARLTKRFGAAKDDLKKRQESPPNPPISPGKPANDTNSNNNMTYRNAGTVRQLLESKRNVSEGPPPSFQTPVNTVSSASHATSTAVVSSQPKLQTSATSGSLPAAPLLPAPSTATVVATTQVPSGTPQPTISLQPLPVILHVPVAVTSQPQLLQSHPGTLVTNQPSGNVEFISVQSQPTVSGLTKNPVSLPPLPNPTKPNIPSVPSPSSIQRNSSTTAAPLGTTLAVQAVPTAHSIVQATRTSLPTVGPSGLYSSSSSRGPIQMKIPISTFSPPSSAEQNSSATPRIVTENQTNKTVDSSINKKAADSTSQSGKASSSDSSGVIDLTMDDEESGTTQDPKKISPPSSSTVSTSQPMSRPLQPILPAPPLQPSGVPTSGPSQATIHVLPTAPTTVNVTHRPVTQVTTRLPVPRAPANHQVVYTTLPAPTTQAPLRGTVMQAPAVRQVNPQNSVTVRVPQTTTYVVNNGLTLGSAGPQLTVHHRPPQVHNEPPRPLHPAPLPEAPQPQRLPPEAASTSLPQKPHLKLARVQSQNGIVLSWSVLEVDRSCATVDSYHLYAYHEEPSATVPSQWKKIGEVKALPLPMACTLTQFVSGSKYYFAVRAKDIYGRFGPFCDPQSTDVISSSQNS
Nature of the assay: co-IP; HEK293T cells transiently co-transfected with 3xFLAG-ATF7IP (WT or dFNIII) and V5-tagged proteins; precipitated with anti-FLAG M2 affinity gel, 4 °C; western blot; which lysis buffer was used is not said. (A western blot detects proteins with antibodies after separation by electrophoresis.)

The target in assay [2] is T2, 3xFLAG-tagged ATF7IP dFNIII mutant (transiently expressed in HEK293T cells) (mouse) (UniProt Q7TT18).
T2 sequence: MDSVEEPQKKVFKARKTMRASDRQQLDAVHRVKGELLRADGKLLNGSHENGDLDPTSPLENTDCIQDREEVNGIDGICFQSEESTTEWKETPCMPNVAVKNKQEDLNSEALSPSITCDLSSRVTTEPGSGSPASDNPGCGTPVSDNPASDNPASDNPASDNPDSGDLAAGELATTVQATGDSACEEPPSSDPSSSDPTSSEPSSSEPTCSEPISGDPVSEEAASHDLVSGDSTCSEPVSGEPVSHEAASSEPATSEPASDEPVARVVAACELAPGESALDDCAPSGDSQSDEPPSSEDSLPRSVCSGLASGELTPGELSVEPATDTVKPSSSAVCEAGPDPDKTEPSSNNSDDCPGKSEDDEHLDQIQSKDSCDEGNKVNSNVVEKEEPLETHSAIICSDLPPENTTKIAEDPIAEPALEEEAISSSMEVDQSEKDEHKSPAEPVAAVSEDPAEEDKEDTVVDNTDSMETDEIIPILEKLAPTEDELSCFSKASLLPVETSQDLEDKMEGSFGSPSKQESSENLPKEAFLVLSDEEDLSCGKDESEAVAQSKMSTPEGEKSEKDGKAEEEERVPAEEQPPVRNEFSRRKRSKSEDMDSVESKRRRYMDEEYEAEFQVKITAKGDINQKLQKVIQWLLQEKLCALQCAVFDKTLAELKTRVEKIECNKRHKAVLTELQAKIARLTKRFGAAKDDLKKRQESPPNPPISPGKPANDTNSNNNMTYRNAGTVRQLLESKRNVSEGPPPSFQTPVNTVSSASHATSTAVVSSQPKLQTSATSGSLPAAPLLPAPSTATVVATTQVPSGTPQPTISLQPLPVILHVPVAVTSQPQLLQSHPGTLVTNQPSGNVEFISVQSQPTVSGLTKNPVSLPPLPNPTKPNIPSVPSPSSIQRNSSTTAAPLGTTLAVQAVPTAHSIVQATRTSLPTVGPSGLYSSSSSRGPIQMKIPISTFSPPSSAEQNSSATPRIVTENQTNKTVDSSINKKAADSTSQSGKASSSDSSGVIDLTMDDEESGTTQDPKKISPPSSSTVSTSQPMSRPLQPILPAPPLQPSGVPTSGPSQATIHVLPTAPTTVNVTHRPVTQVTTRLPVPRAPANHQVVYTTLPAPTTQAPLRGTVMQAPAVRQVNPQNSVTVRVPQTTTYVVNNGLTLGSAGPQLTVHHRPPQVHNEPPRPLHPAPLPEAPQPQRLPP
Described as above.

No constants are given. Whether binding was seen depends on the method and setting. Binding seen in cells or lysates may run through a third protein. Some results given as binding are weak or reduced against the parent protein; the word gives no strength. Tags and fused reporters may be left off the sequences shown.

B1: V5-tagged MGA (residues 2362-3003) (domain or fragment, UniProt A2AWL7 2362-3003)
chain: YYRRTHTANERRRRGEMRDLFEKLKITLGLLHSSKVSKSLILNRAFSEIQGLTDQADKLIGQKNLLSRKRSILIRKVSSLSGKTEEVVLKKLEYIYAKQQALEAQKRKKKLGSDEFCVSPRIGTQLEGSSASSVDLGQMLMNNRRGKPLILSRKRDQATENASPSDTPHSSANLVMTPQGQLLTLKGPLFSGPVVAVSPALLEGGLKPQVASSTMSQSENDDLFMMPRIVNVTSLAAEEDLGGMSGNKYRHEVPDGKPLDHLRDIAGSEASSLKDTERISSRGNHRDSRKALGPTQVLLANKDSGFPHVADVSTMQAAQEFIPKNMSGDVRGHRYKWKECELRGERLKSKESQFHKLKMKDLKDSSIEMELRKVASAIEEAALHPSELLTNMEDEDDTDETLTSLLNEIAFLNQQLNDDSGLAELSGSMDTEFSGDAQRAFISKLAPGNRSAFQVGHLGAGVKELPDVQEESESISPLLLHLEDDDFSENEKQLGDTASEPDVLKIVIDPEIKDSLVSHRKSSDGGQSTSGLPAEPESVSSPPILHMKTGPENSNTDTLWRPMPKLAPLGLKVANPPSDADGQSLKVMPALAPIAAKVGSIGHKMNLAGIDQEGRGSKVMPTLAPVVPKLGNSGAPSSSSGK
For the molecule B1, the binding result is “binds” in assay [1] and “no binding” in assay [2].

B2: V5-tagged mouse ZFP518A (protein, UniProt B2RRF6 1-1478)
chain: MPFEQTQLFCDEKPTILKKLDTRNEIADTIRSVSTSKISETSFQYVLKDVNICLPKINIPNEILMKHEVEKYRLLFQSKPQTARKSISVKTVSCAEECVLLCKSERAEDETVNMSAKILNFSCSKCQDSTQYSPNDLQKHFEMWHHGELPSFPCEMCSFSASDFQIFKQHRKTHRNTFVKCDICNSERSYTLLDLTKHFTSKHCVNGNFQCEECRFFTQDVGTFVQHIHRHKEVHYKCGKCHHLCFTKGELQKHLRVHSGTLPFTCHYCSYGAIHKDQLIRHVITLHKEHLYAKEKLERDQYDKRVAKTTTTGLKLILKRYKIGPTKTFWKRKTITSGNDESIGKNAQAFNIVSKTQTKSEDQSQEQVNGEKGEKQHCENGDKPVESESEKATVLSTGQYNKADEGASTTSSSVLSAVQGPTVLLVRNNKITIPANYSAKFMGFKMVDGRQHIVIKLLPANKQILPSPVLQSNTEKNSTANLSPQAVANTGFATGLTTKVNDTDFVKAAPPACSSPVLARKVISEKEAAFISEKNNTLQMVDDSKSLSSLPTTSTTSVRVTTKVEARDNVDLWENDSPQSHPDASDTSISSPDKVSLTPKPNAYSSGDMHNYCINYVNSELPAESSNSFEFSNQGSLPFHNYSKVNNKRRRFSRATLCENLQKESPNKTVTQQSTSDSDTASPLLRKESSNSDNLFASINPLNGTLKIKTEIEEPYNLEETQNFNEQSLFTNENQNLLNVTEEPKWNDIPSAGSPMMPRITSVFSLQSEQASEFLTPEVNQLLQDTLKPKSDIKEDSNNIPSKNLPFDCDQTLKKSEEVVIKSSKDFQMQDDIPVPSASVGVNVPANDLNSKCNGQEKQGLSVLQDVRDSEVTTKIPNIITLLKTQSDAIITQQLVKDKLRTTTQNSGPVYVQNPFLTSEQKNPVFVQTPKGFIIPLHVANKPGLHVFSGRPVPLVNTRSVPATLLVNKKPGMLLATNNGKPESVPTVKTENVHSYGTVTKEPCKTPFLKAEHNNSCLTPGLCSSIGNCVNMKTCSENTLPLKGSYIIKTSVNSSVKAVPNILPEQQGPKMNILDTVKQQNENLPKASLYTLMPDGKQAVFFKCVMPNNTKLLKPKLVQSSTYQHIQPKRPAGAPQKILVKIFNPVLSMSAFNNLSASNSASSFQKEIVPSKPTVHGEQKEPETSRNALPVLVHGLMPANETVHSSTTACPGSSEEPVYISERSETRVLRGKANCAVERNFNKRKTCKNKFAKIKTRIDQDSETAFVSRNRSCKRKYIDNYQEPPRKKSTLNRKGKERASAEDVQEAFGFSRPRLPKDSSRTLRLFPFSSKQLVKCPRRNQPVVVLNHPDADTPEVERVMKTIAKFNGHVLKVSLSQTTINALLKPVSNTSETTYNDFSKRQKMLKPVNSVKERFVLKLTLKKTSKNNYQIVKTTSEDVLKSQFNCWFCGRVFDNQDVWAGHGQRHLVEATRDWNMLE
On to B2, for which the results for the binding result in assay [1] and in assay [2] were “binds” and “no binding”, respectively.
